Test results: PubChem BioAssay AID588342 (National Center for Advancing Translational Sciences (NCATS), 2011)
Hit rate of the full screen: of about 360,000 compounds, about 25,000 (6.9%) were called active. Inconclusive results, whose numbers are uncertain, are shown with a selection of clear calls. The call rests on the fitted dose curve; in most records, active means well fitted inhibition curve with a large enough effect; inconclusive means small, poorly fitted or top-dose-only effect; inactive means flat fitted curve, though single readings scatter. Potencies of inconclusive entries are doubtful fits and often do not repeat.

biological target: Luciferin 4-monooxygenase (Photinus pyralis) (UniProt P08659); experiment: qHTS profiling assay for firefly luciferase inhibitor/activator using purifed enzyme and Km concentrations of substrates (counterscreen for miR-21 project); conditions: purified FLuc, luminescence inhibition; activity change, negative = inhibition: at 57.5 µM (top of the series); further: nearly all actives have a fitted effect of over 55% in size;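 on activity change, negative = inhibition: plate controls were vehicle for no effect and reference inhibitor for full effect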
Source text: MLPCN Grant: 1 R21 NS059478-01 (miR-21 grant) Assay Provider: NCGC NCGC Assay Overview: Firefly (Photinus pyralis) luciferase is one of the most commonly used transcriptional reporters for a number of reasons. It is considered one of the more dynamically responsive reporters -that is, responsive to changes in reporter transcription - as it requires no post-translational modifications and is enzymatically active directly after protein synthesis (Wood, 1998). Additionally, the half-life of the luciferase protein is short relative to other reporter-gene products (Wood, 1995). Whereas reporters with long half-lives potentially allow for increased signal due to accumulation of reporter-gene product, once accumulated in the cell, dynamic changes in reporter-gene expression may be difficult to detect(Fan and Wood, 2007; Almond et al., 2004). It has been shown that wild-type P. pyralis luciferase has a half-life of approximately […] hours in mammalian cells (Thompson et al., 1991). Firefly luciferase reporter-gene assays are also generally considered one of the most sensitive assay types (Wood, 1995; Wood, 1998). Although light produced in a bioluminescence reaction is of lower intensity than that produced during fluorescence emission, this is offset by little to no background light inherent to luminescent assays. Thus the luciferase reporter can be expressed at much lower levels than fluorescent proteins while still providing robust signal. # However, it was initially observed, in 1991, by Thompson et al., that compounds that resemble the substrates of firefly luciferase (FLuc) can act as competitive inhibitors of the enzyme, and that these compounds, upon interaction with luciferase in the cell, can actually stabilize the protein and increase its half-life. Accumulated intracellular FLuc protein can be measured as an increase in luminescence signal, upon addition of detection reagents (which contain high concentrations of FLuc substrates) commonly used in high-throughput screening. In cell-based reporter gene assays that use FLuc as the reporter gene to quantitate the potential influence of a given compound against the target biology, this apparent increase in luminescence can mistakenly be interpreted as identification of a compound that is active against the target of interest. This is the case for the miR-21 FLuc reporter gene assay used to identify inhibitors of the miR-21 pathway (PubChem AID 2289) - compounds of interest will inhibit miR-21 biogenesis/expression or activity, and are identified by causing an increase in luminescence, due to increased FLuc translation. However, FLuc inhibitory compounds that stabilize the FLuc protein will give an identical read-out, making it difficult to distinguish compounds that are active against the target from those active against FLuc. Previous profiling work to determine the prevalence of compounds that affect FLuc enzymatic activity (PubChem AID 411) identified that ~3% of the MLSMR library (then at ~72K) inhibited FLuc. […] Since the MLSMR had grown to ~350K compounds, and since it was expected that a significant percentage of compounds found active in the miR-21 FLuc assay would be FLuc inhibitors, the library was screened for activity against FLuc using a biochemical assay of purified FLuc and KM concentrations of FLuc substrates (D-luciferin and ATP).
NCGC Assay Protocol Summary: Reagents: 50mM Tris acetate, pH 7.5; 10mM Mg acetate; 10uM D-luciferin (Sigma #L9504); 10uM ATP; 0.01% Tween-20; 0.05% BSA; 10nM P. pyralis luciferase (Sigma #L9506) Control compounds used were two known firefly luciferase inhibitors (compounds (2) and (5) in Auld et al., 2010), and DMSO. […]
Tags describe the fitted curve by direction and shape.

Sequence of UniProt P08659 (P08659 whole entry, looked up): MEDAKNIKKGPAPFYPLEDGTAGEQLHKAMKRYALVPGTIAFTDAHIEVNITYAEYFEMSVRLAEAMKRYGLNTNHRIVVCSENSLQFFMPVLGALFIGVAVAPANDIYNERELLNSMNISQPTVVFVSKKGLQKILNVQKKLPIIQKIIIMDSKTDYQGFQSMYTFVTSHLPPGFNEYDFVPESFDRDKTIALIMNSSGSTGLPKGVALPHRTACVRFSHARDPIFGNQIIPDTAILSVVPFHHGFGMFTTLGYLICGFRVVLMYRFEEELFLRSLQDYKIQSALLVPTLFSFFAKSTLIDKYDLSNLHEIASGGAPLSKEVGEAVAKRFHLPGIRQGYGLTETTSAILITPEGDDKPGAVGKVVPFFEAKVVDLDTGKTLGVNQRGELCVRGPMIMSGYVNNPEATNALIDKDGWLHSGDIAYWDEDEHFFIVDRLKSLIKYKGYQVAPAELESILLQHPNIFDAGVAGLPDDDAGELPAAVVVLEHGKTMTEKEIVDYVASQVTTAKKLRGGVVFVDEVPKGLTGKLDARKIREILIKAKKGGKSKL

SMILES	Potency	activity change, negative = inhibition
O=C(Nc1nc(-c2ccccc2)cs1)c1ccc(Br)o1	active: 23.9 µM	–
COC(=O)c1ccc(NC(=S)Nc2ccccn2)cc1	inconclusive: 3.01 µM [inhibitor, full curve]	–
COc1cc(NC(=O)c2cc3cccc(OC)c3o2)cc(C(=O)Nc2cccc(C(F)(F)F)c2)c1	inconclusive: 26.9 µM [inhibitor, partial curve, poor fit]	–
CC(=O)n1cc(C(C[N+](=O)[O-])SCCN)c2ccccc21 (centres undefined)	inconclusive: 12 µM [inhibitor, partial curve, poor fit]	–
COc1ccc(CNC(=O)CSCc2nc(-c3ccccc3F)oc2C)cc1	inconclusive: 37.9 µM [inhibitor, partial curve, poor fit]	–
CC(C)(C)c1ccc(-c2noc(CCC(=O)NCC3CCCO3)n2)cc1 (centres undefined)	active: 1.9 µM	–
C=CCn1c(C)cc(C(=O)CSc2n[nH]c(N)n2)c1C	active: 19 µM	–
COc1cccc(NC(=O)c2nnn(CCc3ccccc3)c2N)c1	active: 15.1 µM	–
COCC(C)n1c(C)cc(C(=O)COC(=O)CNC(=O)c2ccccc2)c1C (centres undefined)	inconclusive: 23.9 µM [inhibitor, partial curve, poor fit]	–
COCCn1c(=NC(=O)/C=C/c2ccccc2)sc2cc(NC(C)=O)ccc21	–	inactive: -9.64%
COC(=O)c1ccc2[nH]ccc2c1	inconclusive: 37.9 µM [inhibitor, partial curve, poor fit]	–
O=c1c2cnn(-c3ccccc3)c2ncn1CCc1ccccc1	inconclusive: 6.75 µM [inhibitor, partial curve, poor fit]	–
Cc1csc2nc(COC(=O)c3ccc(F)cc3)cc(=O)n12	inconclusive: 37.9 µM [inhibitor, partial curve, poor fit]	–
COc1ccc(C2CC2/C(=N/OC(=O)c2cccs2)c2ccccc2)cc1 (centres undefined)	active: 12 µM	–
O=C(CSc1nnc(SCc2ccc(Cl)cc2)s1)N/N=C/c1ccccc1Cl	active: 6.01 µM	–
COc1ccc(-c2cc(C(F)(F)F)nc(SCC(=O)N3CC(C)OC(C)C3)n2)cc1OC (centres undefined)	–	inactive: 0.472%
Cn1c(C(=O)O)c(CC(=O)N2CCC(Cc3ccccc3)CC2)c2ccccc21	–	inactive: -1.7%
Cc1ccc(C)c(OCC(=O)Nc2ccc(N3CCOCC3)cc2N2CCOCC2)c1	inconclusive: 23.9 µM [inhibitor, single point]	–
C=CCSC1=N/C(=C/c2ccsc2)C(=O)N1c1ccccc1	–	inactive: -1.52%
COc1cc(C#Cc2c(-c3cncn3C)n(C)c3ccc(-c4cnc(OC)nc4)cc23)cc(OC)c1	inconclusive: 12 µM [inhibitor, single point]	–
CCc1nnc(NC(=O)CSc2ccc(-c3nc4ccc(C)cc4[nH]3)cn2)s1	active: 1.69 µM	–
CCOC(=O)c1sc2nc3n(c(=O)c2c1C)CCC(C)CC3 (centres undefined)	inconclusive: 23.9 µM [inhibitor, single point]	–

SMILES	Potency	activity change, negative = inhibition
c1ccc(-n2ncc3cccnc32)cc1	inconclusive: 37.9 µM [inhibitor, partial curve, poor fit]	–
COc1ccc(Nc2nc(N)c(C(=O)c3ccc(OC)cc3)s2)cc1	inconclusive: 30.1 µM [inhibitor, single point]	–
COc1ccc(-c2cc(OC(=O)c3ccccc3C)c3c(C)oc(C)c3c(=O)c2)cc1	inconclusive: 21.3 µM [inhibitor, partial curve, poor fit]	–
Cc1ccc(-n2ncc3c(N4CCCCC4)ncnc32)cc1Cl	active: 0.135 µM	–
COc1cc(C#CC#CCN2CCCCC2)ccc1O	inconclusive: 21.3 µM [inhibitor, partial curve, poor fit]	–
COc1ccc(C(=O)NNC(=O)C23CC4CC(CC(C4)C2)C3)c(OC)c1	inconclusive: 37.9 µM [inhibitor, partial curve, poor fit]	–
CC(C)(C)c1ccc(/C=N/NC(=S)NC2CCCCC2)cc1	inconclusive: 37.9 µM [inhibitor, partial curve, poor fit]	–
CCc1cc2cc3c(cc2nc1SCC(=O)Nc1cc(OC)c(OC)cc1C(=O)O)OCO3	inconclusive: 13.5 µM [inhibitor, partial curve]	–
CCOC(=O)c1c(NC(=S)Nc2ccc(OC)cc2)sc2c1CCC2	–	inactive: -0.708%
O=C(O)[C@H](Cc1ccccc1)NC(=O)N1CCC(Cc2ccccc2)CC1	inconclusive: 16.9 µM [inhibitor, partial curve, poor fit]	–
CCOc1ccc2nc(NC(=O)C3CCCN(S(=O)(=O)c4cccc5nonc45)C3)sc2c1 (centres undefined)	inconclusive: 4.26 µM [inhibitor, full curve]	–
CCCC(=O)c1ccc(N2CCOCC2)c(F)c1	inconclusive: 26.9 µM [inhibitor, partial curve]	–
O=C(O)CC1(CC(=O)Nc2cccc(C(=O)O)c2)CCCC1	inconclusive: 21.3 µM [inhibitor, partial curve, poor fit]	–
COc1cccc(C=Nc2ccc(N3CCOCC3)cc2)c1O	active: 12 µM	–
CC(=O)Nc1ccc(NC(=O)CCc2c(C)nc3c(c(C)nn3-c3ccc(C)cc3)c2C)cc1	–	inactive: -0.325%
CCN(CC)S(=O)(=O)c1nnc(NC(=O)COc2ccc(C)cc2)s1	inconclusive: 10.7 µM [inhibitor, partial curve, poor fit]	–
O=C(CCCN=C1NS(=O)(=O)c2ccccc21)OCC(=O)c1ccccc1Cl	inconclusive: 37.9 µM [inhibitor, partial curve, poor fit]	–
C=CCNc1nc(-c2sc(NC(C)=O)nc2C)cs1	inconclusive: 30.1 µM [inhibitor, single point]	–
CC(=O)Nc1ccccc1-c1nc2ccccc2n(C(C)C(=O)Nc2cc(Cl)ccc2C)c1=O (centres undefined)	–	inactive: 2.72%
Cc1c([N+](=O)[O-])cc(C(=O)Oc2cccc(C(=S)N3CCOCC3)c2)cc1[N+](=O)[O-]	–	inactive: 1.31%
COC1=C(OC)C(=O)C(CCCCCCCCCCO)=C(C)C1=O	inconclusive: 37.9 µM [inhibitor, partial curve, poor fit]	–
Cn1c(=O)c(-c2ccccc2)c(O)c2ccccc21	inconclusive: 12 µM [inhibitor, partial curve, poor fit]	–
